# ± gives the uncertainty stated by the source. Whole data set: some 9,900 compounds, median “viability index relative to DMSO control” near 1, cut for the lowest 2% near 0.85. The list shows a part of the results.
# Tested on: Plasmodium falciparum NF54 stage V gametocytes
# Assay: viability index relative to DMSO control (fraction); higher = less gametocyte killing
# Details: 2.5 µM, library set: Broad Institute DOS, incubation time: 72 h
# Procedure, shortened: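 Stage V gametocytes of P. falciparum NF54 were held in serum-free screening medium at 0.75% gametocytemia and 1.25% hematocrit, 10 µl per well of a 1,536-well plate, and exposed to compound at 2.5 µM for 72 hr at 37°C under low oxygen. A 3 µl mix of 2.5 µM MitoTracker Red CMXRos with 0.13% saponin was then added for one to two hours, after which one field per well was imaged and red particles of 20–70 µm2 were counted. The viability index equals this count divided by the plate mean from wells given solvent alone.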
row,SMILES,viability index
1,COc1ccc2c3c([C@H](CO)N(C[C@]33CCN(CC3)C(=O)Nc3cccc(F)c3)C(=O)CN3CCOCC3)n(C)c2c1,0.941 ± 0.018
2,CO[C@H]1CC[C@@H]2CCOc3ccc(C#N)cc3C(=O)N(C)C[C@@H](c3ccccc3)CC(=O)N(C)C[C@@H]1O2,1.03 ± 0.06
3,C[C@H]1CCCCO[C@H](CN(C)C(=O)Nc2ccccc2)[C@@H](C)CN([C@@H](C)CO)C(=O)c2cc(NC(=O)Nc3ccccc3)ccc2O1,0.998 ± 0.087
4,CN(C)C(=O)C[C@@H]1C[C@H]2c3cc(NC(=O)Nc4ccc(F)cc4)ccc3O[C@H]2[C@H](CO)O1,1.08 ± 0.043
5,COc1ccc2c3c([nH]c2c1)[C@H](CO)N(C[C@]31CN(C1)C(=O)c1ccccc1)S(C)(=O)=O,1.05 ± 0.015
6,O=C(C[C@@H]1C[C@@H]2c3cc(NS(=O)(=O)c4ccc(F)cc4)ccc3O[C@@H]2[C@H](CO)O1)N1CCc2ccccc2C1,1.13 ± 0.069
7,Cc1noc(C)c1NC(=O)Nc1cccc2c1O[C@@H](CN(C)Cc1ccc(C(=O)Nc3ccccc3N)cc1)[C@@H](C)CN([C@@H](C)CO)C2=O,0.982 ± 0.11
8,CCS(=O)(=O)Nc1ccc2c(c1)C(=O)N(C)[C@H]1CC[C@@H](CC(=O)N[C@H]3CCN(Cc4ccccc4)C3)O[C@H]1CO2,1.2 ± 0.021
9,C[C@@H]1CN([C@@H](C)CO)C(=O)c2cc(NS(C)(=O)=O)ccc2O[C@@H](C)CCCCO[C@H]1CN(C)C(=O)Cc1ccccc1,1.02 ± 0.018
10,O=C(CCN1CCCCC1)N[C@H]1CC[C@H](CCn2cc(-c3cccc(F)c3)nn2)O[C@H]1CO,1.08 ± 0.099
11,CCCC(=O)Nc1ccc2c(c1)OC[C@@H](C)NC[C@@H](C)[C@@H](OC)CN(C)C2=O,1.02 ± 0.024
12,CCN(C[C@@H]1[C@@H](c2ccccc2)[C@@H](CO)N1CC1CC1)C(=O)c1ccccn1,0.996 ± 0.06
13,COc1ccc(S(=O)(=O)Nc2ccc3c(c2)C(=O)N([C@H](C)CO)C[C@H](C)[C@@H](CN(C)Cc2ccc(C(F)(F)F)cc2)OCCCC[C@@H](C)O3)cc1,0.899 ± 0.087
14,O=C(C[C@H]1CC[C@H]2[C@@H](COC[C@H](O)CN2Cc2cc(F)cc(F)c2)O1)Nc1nccs1,1.13 ± 0.048
15,COc1ccc(S(=O)(=O)Nc2ccc3c(c2)C(=O)N([C@@H](C)CO)C[C@H](C)[C@H](CN(C)Cc2ccc(C(F)(F)F)cc2)OCCCC[C@@H](C)O3)cc1,1.05 ± 0.2
16,CN1C(=O)c2cc(NC(=O)c3cccc(Cl)c3)ccc2OC[C@H]2O[C@@H](CC(=O)NC3CCCCC3)CC[C@@H]21,1.01 ± 0.012
17,O=C(c1ccccc1)N1[C@@H](CO)[C@@H](c2ccccc2)C12CN(Cc1nccs1)C2,1.1 ± 0.012
18,O=C(Nc1ccc(Cl)cc1)N1C[C@@H]2[C@H](c3ccccc31)[C@@H](CO)N2CC1CCCCC1,0.987 ± 0.025
19,C[C@H](CO)N1C[C@H](C)[C@H](CN(C)Cc2cccc3c2OCCCO3)OCc2cnnn2CCCC1=O,0.981 ± 0.094
20,N#C[C@H]1[C@@H](c2ccc(C#Cc3cccc(F)c3)cc2)[C@@H](CO)N1C(=O)C1CCOCC1,1.05 ± 0.058
21,O=C(C[C@@H]1CC[C@H]2NC[C@@H](O)COC[C@@H]2O1)NCCc1ccncc1,0.985 ± 0.065
22,CN1C[C@@H]2[C@H](c3ccccc31)[C@@H](CO)N2C(=O)C1CCOCC1,1.02 ± 0.075
23,O=C(Cc1ccccn1)N1CC(=O)N2[C@H](CO)[C@@H](c3ccc(C#CCC4CCCC4)cc3)[C@@H]2C1,1.01 ± 0.056

row,SMILES,viability index
1,C[C@@H]1CC(=O)N[C@@H](c2ccccc2)C/C=C\C[C@H](c2ccc3c(c2)OCO3)NC1=O,1.06 ± 0.057
2,C[C@@H]1CN([C@@H](C)CO)C(=O)c2cc(N(C)C)ccc2O[C@H]1CN(C)CC1CCCCC1,0.998 ± 0.053
3,O=C(C[C@H]1CC[C@H]2NC[C@H](O)COC[C@@H]2O1)Nc1ccc(-c2ccccc2)cc1,1.088 ± 0.0014
4,C[C@H](NC(=O)C[C@H]1CC[C@H]2[C@@H](COc3ccc(NS(=O)(=O)c4ccc(Cl)cc4)cc3C(=O)N2C)O1)c1ccccc1,1.091 ± 0.0098
5,CN1C(=O)c2cc(NS(=O)(=O)c3ccccc3Cl)ccc2OC[C@H]2O[C@@H](CC(=O)Nc3cc(F)ccc3F)CC[C@@H]21,1.02 ± 0.026
6,COc1cccc(NC(=O)Nc2ccc3c(c2)C(=O)N(C)C[C@H](OC)[C@@H](C)CN[C@H](C)CO3)c1,1.02 ± 0.047
7,C[C@@H]1CN([C@@H](C)CO)C(=O)c2c(c3ccccc3n2C)-c2ccccc2CO[C@H]1CN(C)C(=O)[C@@H](Cc1ccccc1)N(C)C,1.06 ± 0.042
8,CN1C(=O)c2cc(NC(=O)Nc3ccccc3Cl)ccc2OC[C@H]2O[C@@H](CC(=O)NCCCN3CCOCC3)CC[C@H]21,1.19 ± 0.15
9,O=C(Nc1ccccc1F)N1CCCCN2[C@H](CO)[C@H](c3ccc(/C=C/c4ccccc4)cc3)[C@H]2C1,0.492 ± 0.14
10,Cc1noc(C)c1NC(=O)N(C)C[C@H]1OCc2ccccc2-c2c(n(C)c3ccccc23)C(=O)N([C@H](C)CO)C[C@H]1C,1.03 ± 0.0078
11,CC(C)NC(=O)N1[C@H](CO)[C@H](c2ccccc2)C12CN(C(=O)Cc1cccnc1)C2,1.06 ± 0.043
12,CC(C)NC(=O)NCC[C@@H]1CC[C@@H](NS(=O)(=O)c2ccc(Oc3ccccc3)cc2)[C@@H](CO)O1,1.16 ± 0.092
13,COC(=O)C[C@H]1C[C@@H]2c3cc(NC(=O)c4ccc5c(c4)OCO5)ccc3O[C@@H]2[C@H](CO)O1,1.01 ± 0.065
14,C[C@H](CO)N1C[C@H](C)[C@@H](CN(C)C(=O)Nc2cccc(C(F)(F)F)c2)OCc2cn(nn2)CCCC1=O,0.997 ± 0.027
15,CNC[C@@H]1Oc2ccc(NS(=O)(=O)c3ccc(OC)cc3)cc2C(=O)N([C@@H](C)CO)C[C@@H]1C,1.05 ± 0.016
16,COCC(=O)N1[C@@H]2Cn3c(ccc(/C=C/c4ccccc4)c3=O)[C@H]1[C@@H](C(=O)N1CCOCC1)[C@@H]2CO,1.11 ± 0.028
17,C[C@@H]1CN([C@@H](C)CO)C(=O)c2c(c3ccccc3n2C)-c2ccccc2CO[C@@H]1CN(C)S(=O)(=O)c1ccccc1C#N,1.07 ± 0.09
18,C[C@H](CO)N1C[C@H](C)[C@@H](CN(C)S(=O)(=O)c2cn(C)cn2)OCc2ccccc2-c2ccccc2C1=O,1.05 ± 0.067
19,COCC(=O)N1[C@H](CO)[C@@H](c2ccc(-c3ccccc3OC)cc2)C12CN(C(C)=O)C2,1.09 ± 0.044
20,O=C(c1ccncc1)N1C[C@H]2[C@@H](c3ccccc31)[C@H](CO)N2Cc1ccccc1F,0.999 ± 0.069
21,COc1ccccc1-c1ccc2n(c1=O)C[C@H]1[C@H](CO)[C@@H](C(=O)NCc3ccccc3Cl)N[C@@H]21,1 ± 0.041
22,CCC(=O)N1CC(=O)N2[C@H](CO)[C@H](c3ccc(-c4ccc(C#N)cc4)cc3)[C@H]2C1,0.95 ± 0.037
23,C[C@H](CO)N1C[C@H](C)[C@@H](CN(C)C(=O)Nc2cccc3ccccc23)OCc2cn(nn2)CCCC1=O,1.026 ± 0.01

row,SMILES,viability index
1,CN(C)C(=O)c1ccc(-c2ccc3c(c2)[C@@H]2[C@@H](CCN2Cc2ccncc2)[C@@H](CO)N3)cc1,1.11 ± 0.019
2,N#C[C@H]1[C@@H](c2ccccc2-c2cccc(F)c2)[C@H](CO)N1C(=O)CN1CCOCC1,1.14 ± 0.08
3,COc1ccccc1S(=O)(=O)N(C)C[C@@H]1OCc2cn(nn2)CCCC(=O)N([C@H](C)CO)C[C@H]1C,1.032 ± 0.0056
4,O=C(C[C@@H]1CC[C@H]2[C@@H](COC[C@@H](O)CN2C(=O)c2cnccn2)O1)N1CCN(c2ccccc2)CC1,1.06 ± 0.018
5,Cc1ccc(S(=O)(=O)N(C)C[C@@H]2OCCCC[C@@H](C)Oc3ccc(NC(=O)c4ccncc4)cc3C(=O)N([C@@H](C)CO)C[C@H]2C)cc1,1.03 ± 0.13
6,COc1cccc(NC(=O)C[C@@H]2CC[C@@H]3[C@@H](COc4ccc(NS(=O)(=O)c5cccc(F)c5)cc4C(=O)N3C)O2)c1,1.12 ± 0.11
7,COc1cccc(-c2ccc([C@@H]3[C@H]4CNC[C@@H]3N4C(=O)NC3CCCCC3)cc2)c1,1.06 ± 0.03
8,COc1ccc(CN2[C@@H]3CN(C(=O)NC(C)C)c4ccccc4[C@@H]3[C@@H]2CO)cc1,1.1 ± 0.0094
9,Cc1noc(C)c1S(=O)(=O)N(C)C[C@H]1OCCCC[C@H](C)Oc2ccc(NC(=O)CCC(F)(F)F)cc2C(=O)N([C@H](C)CO)C[C@H]1C,1.012 ± 0.01
10,CCCNC(=O)N(C)C[C@H]1Oc2cc(C#C[C@@H](C)O)ccc2S(=O)(=O)N([C@H](C)CO)C[C@@H]1C,1.04 ± 0.015
11,C[C@H]1CN([C@@H](C)CO)C(=O)c2cccc(N(C)C)c2O[C@@H]1CN(C)C(=O)Nc1ccc(F)cc1,0.943 ± 0.017
12,CC(C)(C)S(=O)N1Cc2cc(C(=O)NCCCN3CCOCC3)nc(-c3cccc(-c4cccc(F)c4)c3)c2[C@H]1CCO (stereo partly drawn),1.01 ± 0.057
13,O=C1CN(S(=O)(=O)Cc2ccccc2)C[C@H]2[C@H](c3ccc(C#Cc4ccccc4)cc3)[C@H](CO)N12,1.051 ± 0.006
14,C[C@@H]1CN([C@@H](C)CO)C(=O)c2ccccc2-c2ccccc2CO[C@H]1CN(C)S(=O)(=O)c1cn(C)cn1,0.99 ± 0.16
15,O=C(NC1CCCC1)[C@@H]1[C@@H](CO)[C@@H]2Cn3c(cccc3=O)[C@H]1N2C(=O)CC1CC1,1.117 ± 0.0051
16,CNC[C@@H]1Oc2c(NS(=O)(=O)c3ccc(Cl)cc3)cccc2C(=O)N([C@@H](C)CO)C[C@H]1C,1.0352 ± 0.00018
17,O=C(NC1CCCC1)N1CCCCN2[C@H](CO)[C@@H](c3ccc(-c4cccnc4)cc3)[C@@H]2C1,1.01 ± 0.063
18,C[C@@H]1CN([C@@H](C)CO)S(=O)(=O)c2ccc(Br)cc2O[C@@H]1CN(C)Cc1ccc2c(c1)OCO2,0.857 ± 0.15
19,O=C(C[C@@H]1C[C@H]2c3cc(NC(=O)C4CCOCC4)ccc3O[C@H]2[C@H](CO)O1)NCc1cccnc1,1.06 ± 0.0075
20,N#Cc1ccc(-c2ccc([C@@H]3[C@@H]4CN(Cc5cocn5)C[C@H]3N4)cc2)cc1,0.993 ± 0.0099
21,N#C[C@H]1N[C@H](CO)[C@H]1c1ccc(C#Cc2ccccc2F)cc1,1.04 ± 0.047
22,C[C@H]1CN([C@@H](C)CO)C(=O)c2cc(NS(C)(=O)=O)ccc2O[C@H]1CN(C)C,0.981 ± 0.07

# — the supplement of paper PMC4723716
